# Experimental data: paper PMC4336329 (PLoS ONE, 2015)
# In all, about 310,000 compounds went through this assay and about 2,200 (0.71%) showed an effect of 50% or more. Effects have a minus sign here. The list shows a part of the results.
# Molecular target: human ether-à-go-go-related gene (hERG) potassium channel (human, UniProt Q12809)
# Assay: primary screen, population patch clamp on CHO cells stably expressing hERG
# Chain of human ether-à-go-go-related gene (hERG) potassium channel (Q12809 whole entry, looked up): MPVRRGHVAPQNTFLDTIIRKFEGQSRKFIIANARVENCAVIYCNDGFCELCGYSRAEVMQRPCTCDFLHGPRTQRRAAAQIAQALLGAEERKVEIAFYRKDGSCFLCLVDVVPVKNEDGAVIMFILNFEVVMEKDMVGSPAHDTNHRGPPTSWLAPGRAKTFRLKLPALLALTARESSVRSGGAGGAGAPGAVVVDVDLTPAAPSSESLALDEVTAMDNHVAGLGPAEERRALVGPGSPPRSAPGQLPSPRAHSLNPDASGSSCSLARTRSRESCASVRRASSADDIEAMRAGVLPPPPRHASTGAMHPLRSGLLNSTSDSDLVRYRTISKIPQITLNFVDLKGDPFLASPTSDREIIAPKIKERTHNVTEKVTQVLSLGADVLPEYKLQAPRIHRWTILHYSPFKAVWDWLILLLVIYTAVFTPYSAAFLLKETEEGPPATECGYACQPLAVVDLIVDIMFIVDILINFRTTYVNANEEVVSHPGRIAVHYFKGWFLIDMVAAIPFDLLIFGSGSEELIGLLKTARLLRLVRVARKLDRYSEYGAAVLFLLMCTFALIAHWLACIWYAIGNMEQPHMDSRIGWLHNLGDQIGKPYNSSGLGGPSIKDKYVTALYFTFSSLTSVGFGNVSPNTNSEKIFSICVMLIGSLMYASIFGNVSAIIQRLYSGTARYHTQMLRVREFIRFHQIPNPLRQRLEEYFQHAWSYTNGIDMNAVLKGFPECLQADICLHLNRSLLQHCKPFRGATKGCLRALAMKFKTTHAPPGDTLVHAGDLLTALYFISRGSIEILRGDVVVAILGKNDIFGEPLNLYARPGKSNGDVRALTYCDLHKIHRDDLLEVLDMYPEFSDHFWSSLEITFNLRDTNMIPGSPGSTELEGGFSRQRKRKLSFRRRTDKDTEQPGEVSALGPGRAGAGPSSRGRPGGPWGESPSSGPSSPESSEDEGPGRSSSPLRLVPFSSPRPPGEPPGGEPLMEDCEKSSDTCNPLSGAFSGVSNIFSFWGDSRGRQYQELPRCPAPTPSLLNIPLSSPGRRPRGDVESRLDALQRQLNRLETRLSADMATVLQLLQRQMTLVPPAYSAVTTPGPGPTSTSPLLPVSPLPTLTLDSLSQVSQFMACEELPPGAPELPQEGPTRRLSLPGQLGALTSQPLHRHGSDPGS
row,Compound,"hERG current change (%, negative = inhibition) at 1uM [%]"
1,CC(C)Cn1c(N)c(C(=O)COC(=O)c2nccnc2N)c(=O)n(C)c1=O,-6.71
2,C=CCNC(=O)C(C)N1c2cccc3cccc(c23)S1(=O)=O (stereo not shown),12.5
3,O=C(c1ccc2c(c1)OCO2)N(CC1CCCO1)C1(C(=O)NC2CCCCC2)CCCCC1 (stereo not shown),4.58
4,CC(=O)N1CCN(CC(=O)Nc2ccc(C#N)c(Cl)c2)CC1,-0.422
5,CCOC(=O)c1c(C)[nH]c(C(=O)N2CCN(C(=O)OCC)CC2)c1C,7.64
6,OC1=C(O)c2nc3cc(F)ccc3nc21,10.4
7,COc1ccccc1-c1cc(C(F)(F)F)nc(S(=O)(=O)CCCC(=O)O)n1,10.9
8,COCCNC(=S)NCc1ccc2[nH]c3c(c2c1)CCCC3,6
9,CC(=O)Nc1nnc(COc2ccc(Cl)cc2)s1,7.78
10,c1ccc(-c2cc(N3CCCCCC3)n[nH]2)cc1,2.14
11,FC(F)(F)/C(=N\P(=S)(N1CCOCC1)N1CCOCC1)N1CCOCC1,12.7
12,Cc1ccc(-n2c(O)c(C=NCCC3=CCCCC3)c(=O)[nH]c2=O)cc1,11.2
13,O=C(CNC(=O)c1cccs1)Nc1ccc(N2CCOCC2)cc1,2.95
14,CCn1c(NCc2cc(Cl)ccc2O)nc2ccccc21,8.08
15,O=C1OCCC1Sc1nc2ccccc2c(=O)n1Cc1ccccc1 (stereo not shown),-64.6
16,O=C(OCc1nnc(-c2ccccc2)o1)C1CC(=O)N(Cc2ccco2)C1 (stereo not shown),5.68
17,Cc1cccc(C(=O)O/N=C(\N)CS(=O)(=O)c2ccccc2)c1,5.74
18,COc1ccccc1NC(=O)C(=O)NCc1ccccc1Cl,14.4
19,O=C1c2ccccc2CCc2ccc(Br)cc21,12.9
20,CN(C)c1ccc(C=NCCC2(c3ccccc3)CCOC(C)(C)C2)cc1 (stereo not shown),10.7
21,O=C(CN1C(=O)C2C3C=CC(C3)C2C1=O)Nc1cccc(S(=O)(=O)N2CCCC2)c1 (stereo not shown),0.743
22,COc1cc(OC)c(NS(=O)(=O)c2cccc(C(=O)OCC(=O)NCC3CCCO3)c2)cc1Cl (stereo not shown),12.9

row,Compound,"hERG current change (%, negative = inhibition) at 1uM [%]"
1,COC(=O)c1ccc(NC(=O)c2cccnc2)cc1,14.9
2,CCN(CCNC(=O)C1CCN(S(C)(=O)=O)CC1)c1ccccc1,-3.8
3,CC(=O)Nc1ccc(OCC(O)CNC2CCCC2)cc1.Cl (stereo not shown),14.8
4,O=C(OCc1ccc([N+](=O)[O-])cc1)c1cc(=O)c2ccccc2o1,12.8
5,CCSc1n[nH]c2nc3c(c(=O)n12)C1(CCCCC1)Cc1ccccc1-3,-6.7
6,N=c1c2c3c(sc2ncn1Cc1ccccc1)CCCC3,-6.48
7,COc1ccc(C(C)=O)cc1CSc1nnc(-c2ccncc2)o1,8.85
8,COc1ccccc1/C=C/C(=O)OCc1nc2ccccc2c(=O)[nH]1,16.1
9,CCOC(=O)c1cccc(NC(=O)CSc2nnc(-c3ccncc3)n2CCCOC)c1,-22.9
10,O=c1c(-c2ccco2)[n+]([O-])c2ccccc2n1OCc1ccccc1F,10.6
11,Cc1[nH]c(=O)[nH]c(=O)c1CSc1nnc([C@@H](NC(=O)OC(C)(C)C)C(C)C)o1,10.9
12,COc1ccc(N(CC(O)Cn2c3ccccc3c3ccccc32)S(=O)(=O)c2ccccc2)cc1 (stereo not shown),11.6
13,O=C(CSc1nnc(-c2ccco2)o1)Nc1cccc([N+](=O)[O-])c1,11.5
14,Cc1ccc(S(=O)(=O)CCSc2n[nH]c(=O)n2-c2ccc3c(c2)OCCO3)cc1,11.5
15,CCOC(=O)N1CCC(N2CCN(C3CCCC3)C(CCO)C2)CC1 (stereo not shown),1.4
16,CCc1cccc(NC(=O)Nc2ccc3c(c2)OCO3)c1,6.95
17,COc1ccc(NC(=O)C2C3CCC(C3)C2C(=O)O)cc1OC (stereo not shown),19.4
18,CCC(CC)c1nnc(NC(=O)C2CSC3(C)CCC(=O)N23)s1 (stereo not shown),5.98
19,O=C(O)c1cccc(N/N=C/c2ccc(F)c(F)c2)c1,7.69
20,Cc1ccc(F)cc1NC(=O)CSc1nc(Nc2ccccc2)nc(N2CCOCC2)n1,-4.37
21,Fc1ccc(C2=CC(c3ccco3)n3ncnc3N2)cc1 (stereo not shown),9.38
22,CCCn1c(N)c(N(CCOC)C(=O)c2ccc(-c3ccc(Cl)cc3)o2)c(=O)[nH]c1=O,8.21

row,Compound,"hERG current change (%, negative = inhibition) at 1uM [%]"
1,O=C(c1cccs1)N(C(=O)c1cccs1)c1ccccn1,12.6
2,N#CC(c1ccccc1)c1cccc(Cl)n1 (stereo not shown),11.1
3,COc1ccc2nc(/N=C\N(C)C)sc2c1,-9.29
4,COc1ccccc1-c1nc(-c2cccc(C)c2)no1,4.46
5,CCN(C(=O)Cn1c(=O)n(-c2cc(OC)c(OC)c(OC)c2)c(=O)c2ccccc21)c1cccc(C)c1,7.47
6,COC(=O)C1=C(c2ccc(S(C)(=O)=O)cc2)C[C@@H]2CC[C@H]1N2C(=O)NC1CC1,17.4
7,O=C(Nc1ccc(N2CCN(C(=O)c3ccccc3)CC2)c(Cl)c1)c1ccco1,-4.71
8,Cc1ccc(-n2cc(CNC(C)Cc3cnccn3)c(-c3cccc(C)c3)n2)cc1 (stereo not shown),-33
9,CCOC(=O)/C(=N\Nc1cc(Cl)ccc1Cl)N1CCN(CC)CC1,14
10,O=C(Nc1ccc(S(=O)(=O)N2CCOCC2)cc1)c1cc(-c2cc(Cl)ccc2O)n[nH]1,4.43
11,CCOC(=O)c1cnn(-c2ncnc3c2cnn3C)c1N,7.44
12,Cc1ccc(S(=O)(=O)NC(C(=O)N2CCOCCOCCOCCOCC2)c2ccccc2)cc1 (stereo not shown),2.76
13,Cc1ccoc1C(=O)N1CCCCC1C(=O)O (stereo not shown),12.4
14,CCN(CC)C(=O)c1sc(NC(=O)c2c(OC)cccc2OC)c(C#N)c1C,2.18
15,O=c1[nH]nnc2c1sc1nc(N3CCOCC3)c3c(c12)CCCC3,1.15
16,Nc1cccc(NC(=O)c2cccs2)c1,4.63
17,CC1Cc2cc(/C(O)=C3/C(=O)C(=O)N(Cc4ccncc4)C3c3ccc(N(C)C)cc3)ccc2O1 (stereo not shown),13.2
18,Cc1ccc(S(=O)(=O)/N=C2\C=C(Nc3cccc(C(=O)O)c3)C(=O)c3ccccc32)c(C)c1,6.01
19,CC(=O)O.O=S(=O)(CCc1ccncc1)C1Cc2cccc3cccc1c23 (stereo not shown),-5.03
20,COc1ccc2ccccc2c1CNCc1ccc(C)cc1.O=C(O)C(=O)O,-18
21,Cc1ccc(C(=O)O)cc1NC(=O)c1cccs1,23.2
22,O=C(Nc1ccccc1Cl)c1c(F)c(F)c(F)c(F)c1F,-1.65

row,Compound,"hERG current change (%, negative = inhibition) at 1uM [%]"
1,COc1ccc(N(CC(=O)Nc2cccc(C(F)(F)F)c2)S(=O)(=O)c2c(C)[nH]c(=O)[nH]c2=O)cc1,6.76
2,C(=N\N1CCN(c2ccccn2)CC1)/c1ccco1,10.3
3,O=C(O)c1cc2n(n1)CCN(Cc1ccccc1Cl)C2=O,12.2
4,CN(Cc1ccc(Cl)cc1Cl)C(=O)CNC(=O)c1ccco1,-3.38
5,Cc1oc2cc3oc(=O)c(CCC(=O)NCCN4CCOCC4)c(C)c3cc2c1C,6.83
6,O=C(NCCN1C(=O)S/C(=C\c2ccc(Cl)c(Cl)c2)C1=O)C1COc2ccccc2O1 (stereo not shown),-9.85
7,CC(Oc1ccc(Cl)cc1Cl)C(=O)N/N=C1\CCCc2ccccc21 (stereo not shown),7.93
8,CC(C)[C@@H](C(=O)NC1CCN(Cc2ccccc2)CC1)N1C(=O)N2CCc3c([nH]c4ccccc34)[C@@]2(C)C1=O,-4.75
9,COc1ccc(NC(=O)C(OC(=O)c2cnc(C)cn2)c2ccccc2)cc1Cl (stereo not shown),2.5
10,Cc1ccc(-n2ncc3c2CCCC3NC(=O)c2csnn2)cc1C (stereo not shown),2.61
11,NC(=O)NC(=O)COC(=O)/C=C/c1cccs1,8.64
12,CCOC(=O)c1ccc(N=c2sc(C(=O)OC)cc(=O)n2CCCN2CCOCC2)cc1,5.86
13,O=Nc1c(O)[nH]c2ccc(F)cc12,10.7
14,CC(=O)Nc1ccc(C2=NNC(=NCC3CCCO3)SC2)cc1 (stereo not shown),13.5
15,Cc1ccc(-c2nn(-c3ccccc3)cc2C(=O)Nc2cccc(S(=O)(=O)N3CCOCC3)c2)cc1,5.13
16,O=C(CSc1nnc2sc3ccccc3n12)c1ccco1,1.81
17,Cc1cc(CNC(=O)c2ccc3oc(C(C)C)nc3c2)nn1C,7.41
18,O=C(Cc1ccccc1)N1CCN(S(=O)(=O)c2cccc([N+](=O)[O-])c2)CC1,-5.66
19,Cc1cc(NC(=O)c2ccc(N(C)S(=O)(=O)c3ccccc3)cc2)no1,-5.75
20,COC(=O)c1ccc2c(c1)NC(=O)C(N1CCOCC1)S2 (stereo not shown),-8.8
21,Cc1ccc(C(=O)OCC(=O)c2ccc[nH]2)s1,5.27
22,Cc1ccnc(NC(=O)CCC(=O)N(CC(=O)NC2CCCCC2)C2CCCC2)c1,10.2
